Source: patent EP4209511A1

Target: T1, Human CD84 produced by mammalian cells (human) (UniProt Q9UIB8)
T1 sequence (looked up): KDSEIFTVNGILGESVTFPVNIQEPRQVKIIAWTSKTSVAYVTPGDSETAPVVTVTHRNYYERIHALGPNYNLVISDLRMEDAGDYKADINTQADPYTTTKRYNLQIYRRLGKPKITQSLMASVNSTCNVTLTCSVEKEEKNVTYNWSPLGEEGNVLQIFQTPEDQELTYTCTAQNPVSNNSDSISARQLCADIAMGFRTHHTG
Experiment: monoclonal phage ELISA, plate coated with CD84 antigen, anti-phage HRP antibody

ELISA signal on antigen (Ag), read at 450 nm (absorbance at 450 nm): 0.506
B1: R3-B3 (scFv)
scFv: [about 100 residues left out]WDCSDGRCYWAYWGQGTLVTVSSGGGGSGGGGSGGGGSGGGGASQPVLTQPPSVSVAPGQTARISCGGDNIESKDVHWYQRKSGQAPVLVVHDDADRPTGIPDRFSGSNSGNTATLTISRVEAGDEADYYCQVWDSSSDHVVFGGGTQLTVL
